About 14,000 (4.5%) of roughly 310,000 compounds showed an effect of 50% or more. Effects have a minus sign here. This is one part of the list.

Data on 58 molecules can be found in publication PMC4336329 (PLoS ONE, 2015).
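Note: peak tail current of the secondary pulse compared with the same well before compound.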

This test deals with human ether-à-go-go-related gene (hERG) potassium channel (human, UniProt Q12809). Kind of test: primary screen, population patch clamp on CHO cells stably expressing hERG.
human ether-à-go-go-related gene (hERG) potassium channel, sequence (Q12809 whole entry, looked up): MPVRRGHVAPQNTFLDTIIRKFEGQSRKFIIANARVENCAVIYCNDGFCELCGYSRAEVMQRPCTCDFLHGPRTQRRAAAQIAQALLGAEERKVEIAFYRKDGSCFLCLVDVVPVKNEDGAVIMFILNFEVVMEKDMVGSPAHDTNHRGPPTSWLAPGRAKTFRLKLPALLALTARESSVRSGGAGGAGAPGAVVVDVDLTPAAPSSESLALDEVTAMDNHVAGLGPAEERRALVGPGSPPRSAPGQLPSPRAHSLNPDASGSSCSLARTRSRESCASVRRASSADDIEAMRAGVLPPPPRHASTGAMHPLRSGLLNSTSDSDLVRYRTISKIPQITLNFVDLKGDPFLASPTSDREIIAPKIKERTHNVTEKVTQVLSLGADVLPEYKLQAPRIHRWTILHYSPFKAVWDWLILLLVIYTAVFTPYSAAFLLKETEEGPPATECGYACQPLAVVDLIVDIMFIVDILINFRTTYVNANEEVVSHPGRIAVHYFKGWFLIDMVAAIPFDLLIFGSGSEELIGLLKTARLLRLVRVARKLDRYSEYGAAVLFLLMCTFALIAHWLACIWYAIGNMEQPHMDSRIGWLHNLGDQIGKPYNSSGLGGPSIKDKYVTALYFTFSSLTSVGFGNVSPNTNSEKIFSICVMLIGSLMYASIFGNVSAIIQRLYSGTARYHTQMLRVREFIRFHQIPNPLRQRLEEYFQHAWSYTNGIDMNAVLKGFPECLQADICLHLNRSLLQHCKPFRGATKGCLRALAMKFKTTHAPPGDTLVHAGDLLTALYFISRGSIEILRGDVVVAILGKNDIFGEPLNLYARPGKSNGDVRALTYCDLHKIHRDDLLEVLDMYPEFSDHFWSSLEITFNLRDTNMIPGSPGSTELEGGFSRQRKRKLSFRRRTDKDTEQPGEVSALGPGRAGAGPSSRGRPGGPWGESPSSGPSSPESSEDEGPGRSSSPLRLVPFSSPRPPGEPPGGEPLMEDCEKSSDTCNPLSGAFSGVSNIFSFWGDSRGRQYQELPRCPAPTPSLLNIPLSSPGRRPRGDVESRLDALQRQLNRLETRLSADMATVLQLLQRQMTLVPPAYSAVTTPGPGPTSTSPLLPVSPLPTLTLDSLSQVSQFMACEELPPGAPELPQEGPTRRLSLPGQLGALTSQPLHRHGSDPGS
For `Oc1ccc(-c2csc(Nc3cccnc3)n2)cc1`, the “hERG current change (%, negative = inhibition) at 10uM” value was -2.34%. Take `O=C(O)c1cccc2c1C(=O)c1ccc(-c3ccc(Cl)c(C(F)(F)F)c3)cc1S2(=O)=O`: the “hERG current change (%, negative = inhibition) at 10uM” value was 7.61%. Regarding `COc1ccc(CNC(=O)C(C)N2C(=O)NC(c3ccccc3)(c3ccccc3)C2=O)cc1` (stereo not shown), the “hERG current change (%, negative = inhibition) at 10uM” value is recorded as -86.5%. With `CC(=O)N(CCCN(C)C)CCC(C)CCC=C(C)C` (stereo not shown), the “hERG current change (%, negative = inhibition) at 10uM” value is -36.3%. The same measure for `CCCCNC(=O)N1CCN(c2ccnc3cc(Cl)ccc23)CC1`: -78.2%; for `CN1CC(=O)N(CC(=O)Nc2ccc(SC(F)F)cc2)C1=O`: -23.5%; for `COc1ccc(-n2nc(C(=O)NCC(=O)NC(C)C)c3ccccc3c2=O)cc1OC`: 14.9%.

On to `NS(=O)(=O)c1ccc(NC(=O)COC(=O)COc2ccc3ccccc3c2)cc1`, for which the “hERG current change (%, negative = inhibition) at 10uM” value stood at 22%. The same measure for `Cc1cc(C)cc(NC(=O)NC2CCCCCCC2)c1`: -5.07%. The same measure for `O=C1CC(N2CCN(C/C=C/c3ccccc3)CC2)C(=O)N1Cc1cccs1` (stereo not shown): -74.8%; for `O=C(CC1C(=O)NCCN1Cc1cccc(Oc2ccccc2)c1)NCc1cccnc1` (stereo not shown): -10.6%. The same measure for `COC(=O)c1ccc(C(=O)OC)c(NC(=S)N2CCN(C)CC2)c1`: 20.4%; for `CCn1nc(NC(=O)C2CCCO2)c2cc3cccc(C)c3nc21` (stereo not shown): 9.1%. Regarding `COC(=O)c1cc(OC)c(OC)cc1NC(=O)C(C)Sc1ccc(C)cc1` (stereo not shown), the “hERG current change (%, negative = inhibition) at 10uM” value is given as -2.69%. Turning to `Cc1cccc(OCC(=O)NC2CCCc3ccccc32)c1C` (stereo not shown), the “hERG current change (%, negative = inhibition) at 10uM” value is 17.9%. The same measure for `CN(C)S(=O)(=O)c1ccc(NC(=O)CSc2nnnn2C)cc1`: 12.1%; for `CCCCn1c(O)c(/C=C2\C=NN=C2c2ccccc2)sc1=S`: 2.83%. The value for `Cc1cc(NCCO)c2ccccc2n1.Cl` was 6.81%; that for `O=C(c1ccccc1)N1CCN(c2ccc(Cl)cc2)CC1` was -25.1%.

As to `Cc1ccc2[nH]c(=O)c(CN(CC3CCCO3)S(=O)(=O)c3cccc4nsnc34)cc2c1` (stereo not shown), the “hERG current change (%, negative = inhibition) at 10uM” value is on record as -23.3%. The value for `CCc1c(C)nc2c(C#N)c(C)[nH]n2c1=O` was 5.77%; that for `COc1cccc(NC(=O)C2CC(=O)N/C(=N/NC(=O)c3ccc(C)cc3)S2)c1` (stereo not shown) was 7.13%.

On to `CCC(C(=O)O/N=C(\N)c1ccccc1)c1ccccc1` (stereo not shown), for which the “hERG current change (%, negative = inhibition) at 10uM” value is on record as 8.05%. The value for `CC(C)Nc1ccc(Cl)cc1[N+](=O)[O-]` was 14.3%. `Cc1ccc(NC(=O)c2cccnc2)cc1S(=O)(=O)N1CCOCC1`: the “hERG current change (%, negative = inhibition) at 10uM” value is on record as -4.35%. The same measure for `Cc1cccc(C(=O)OC(C)C(=O)Nc2ccc(S(=O)(=O)N3CCCC3)cc2)c1O` (stereo not shown): 15.7%. The value for `CSCC[C@H](NC(=O)Nc1ccc(OC(F)(F)F)cc1)C(=O)O` was 2.27%. Take `Cc1cccc(C)c1NC(=O)CSc1nnc([C@H](C)NC(=O)OC(C)(C)C)o1`: the “hERG current change (%, negative = inhibition) at 10uM” value is recorded as -3.35%. The value for `COc1ccc(C)cc1NC(=O)Nc1ccc2c(c1)CCC2` was 17.5%. The value for `COc1cccc(NS(=O)(=O)NC(=O)c2cn(C)c3ccccc23)c1` was 20%; that for `CC(=O)NN1C(=O)c2ccc(Oc3ccc4c(c3)C(=O)N(NC(C)=O)C4=O)cc2C1=O` was 8.92%. On to `CC(C)COC(=O)c1nnsc1NC(=O)Nc1ccccc1`, for which the “hERG current change (%, negative = inhibition) at 10uM” value is given as 5.29%. The same measure for `CC1CC(C)CN(CC(=O)c2c[nH]c3ccccc23)C1` (stereo not shown): -5.76%; for `N#Cc1ccc(-n2nnc3ccccc3c2=O)c([N+](=O)[O-])c1`: 24.6%. The same measure for `S=C(NCCc1ccccc1)NCc1cccc(Cl)c1`: 6.88%; for `Cc1ccc(NC(=O)C2CCCN(c3nccc(C)n3)C2)c(C)c1` (stereo not shown): 5.08%; for `O=C(N/N=C/c1ccc2c(c1)OCO2)c1ccc2ccccc2n1`: 10.1%. The same measure for `COc1ccc(N2CCN(C(=O)c3oc4ccccc4c3C)CC2)cc1`: -31.9%; for `Cn1c(=O)[nH]c(=O)c2c1nc(Br)n2Cc1ccccc1Cl`: 5%; for `CN(Cc1cccc(-n2cccn2)c1)Cc1cn(C)nc1-c1ccccc1F`: 15.9%.

Take `CCOC(=O)CCN(Cc1ccccc1)S(=O)(=O)c1csc(C(N)=O)c1`: the “hERG current change (%, negative = inhibition) at 10uM” value is -22.4%. The value for `CN(C)c1cc(-c2ccc(Br)cc2)oc(=O)c1Cl` was 15.5%; that for `Cc1ccnc(NS(=O)(=O)c2ccc(Oc3ccccc3)cc2)c1` was 19.3%; that for `Cc1nnc(SCc2nc3ccccc3c(=O)n2-c2ccccc2Cl)n1N` was -12.5%. The same measure for `CNC(=O)c1nnc(Cc2ccc(F)cc2)o1`: 9.51%; for `Clc1cccc(-c2cc3nc4c(c(N5CCOCC5)n3n2)CCCC4)c1`: -6.06%. On to `O=C(NCCO)c1nc2ccccc2s1`, for which the “hERG current change (%, negative = inhibition) at 10uM” value is given as 13.3%. The same measure for `O=C(COC(=O)c1ccccc1)NC1CCCC1`: 5.12%; for `NC(=O)c1ccc(N2CCC(C(N)=O)CC2)c([N+](=O)[O-])c1`: 1.16%. The value for `CC(C)c1ccc(C(C(=O)NC(C)(C)C)N(C(=O)CNC(=O)c2ccco2)c2cccnc2)cc1` (stereo not shown) was 9.33%; that for `CC(=O)NN1C(=O)/C(=C\c2ccc(Br)o2)SC1=S` was -0.448%. The same measure for `CCC(C)NC(=O)C(=O)NCc1ccccn1` (stereo not shown): 14.6%; for `COc1ccc(-c2n[nH]c(=S)n2Cc2ccccc2)cc1OC`: -11.6%; for `O=C(CCn1c(=O)[nH]c2ccsc2c1=O)N1CCN(c2ccc([N+](=O)[O-])cc2)CC1`: -35.2%.

Consider `COc1cc(S(=O)(=O)N2CCN=C2c2ccccc2)c(OC)cc1Cl`, for which the “hERG current change (%, negative = inhibition) at 10uM” value came out at 11.6%.

Turning to `CNc1c2c(nn1C)CCCC2`, the “hERG current change (%, negative = inhibition) at 10uM” value amounted to 27.1%.

`CCCS(=O)(=O)c1c(S(=O)(=O)CCC)c2c(N)cccn2c1C(=O)c1ccc(Br)cc1`: the “hERG current change (%, negative = inhibition) at 10uM” value was -4.52%. The same measure for `CCn1c(SCC(=O)Nc2ccc3c(c2)oc2ccccc23)nnc1-c1ccc(N)cc1`: -3.26%.
